Test results as given in the supplement of paper PMC8728848.
Some of the results follow.

Tests used:
Experiment in all cases: glycan array binding signal (z-score within array); higher = stronger binding
Settings in all cases: glycan notation: IUPAC condensed, linker removed
Fuc(a1-2)Gal = target: Fuc(a1-2)Gal
Procedure, shortened: (§1)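 The Consortium for Functional Glycomics database supplied 3228 glycan arrays, of which those lacking an available protein sequence were dropped. The binding signal, a within-array Z-score, was averaged across arrays of the same protein sequence and across linkers. Negative scores can be read as non-binding.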

Fuc(a1-2)Gal(b1-3)GalNAc = target: Fuc(a1-2)Gal(b1-3)GalNAc
Procedure, shortened: as §1

[1] = target: Fuc(a1-2)Gal(b1-3)GalNAc(a1-3)[Fuc(a1-2)]Gal(b1-4)Glc
Procedure, shortened: as §1

[2] = target: Fuc(a1-2)Gal(b1-3)GalNAc(a1-3)[Fuc(a1-2)]Gal(b1-4)GlcNAc
Procedure, shortened: as §1

[3] = target: Fuc(a1-2)Gal(b1-3)GalNAc(b1-3)Gal
Procedure, shortened: as §1

[4] = target: Fuc(a1-2)Gal(b1-3)GalNAc(b1-3)Gal(a1-4)Gal(b1-4)Glc
Procedure, shortened: as §1

[5] = target: Fuc(a1-2)Gal(b1-3)GalNAc(b1-4)[Neu5Ac(a2-3)]Gal(b1-4)Glc
Procedure, shortened: as §1

Fuc(a1-2)Gal(b1-3)GlcNAc = target: Fuc(a1-2)Gal(b1-3)GlcNAc
Procedure, shortened: as §1

[6] = target: Fuc(a1-2)Gal(b1-3)GlcNAc(b1-2)Man(a1-3)[Fuc(a1-2)Gal(b1-3)GlcNAc(b1-2)Man(a1-6)]Man(b1-4)GlcNAc(b1-4)GlcNAc
Procedure, shortened: as §1

[7] = target: Fuc(a1-2)Gal(b1-3)GlcNAc(b1-2)Man(a1-3)[Fuc(a1-2)Gal(b1-3)GlcNAc(b1-2)Man(a1-6)]Man(b1-4)GlcNAc(b1-4)[Fuc(a1-6)]GlcNAc
Procedure, shortened: as §1

[8] = target: Fuc(a1-2)Gal(b1-3)GlcNAc(b1-3)Gal(b1-4)Glc
Procedure, shortened: as §1

[9] = target: Fuc(a1-2)Gal(b1-3)GlcNAc(b1-3)GalNAc
Procedure, shortened: as §1

[10] = target: Fuc(a1-2)Gal(b1-3)GlcNAc(b1-3)[Fuc(a1-2)Gal(b1-3)GlcNAc(b1-6)]GalNAc
Procedure, shortened: as §1

[11] = target: Fuc(a1-2)Gal(b1-3)GlcNAc(b1-3)[Gal(b1-4)GlcNAc(b1-6)]Gal(b1-4)Glc
Procedure, shortened: as §1

[12] = target: Fuc(a1-2)Gal(b1-3)GlcNAc(b1-3)[Neu5Ac(a2-6)Gal(b1-4)GlcNAc(b1-6)]Gal(b1-4)Glc
Procedure, shortened: as §1

[13] = target: Fuc(a1-2)Gal(b1-3)GlcNAc6S
Procedure, shortened: as §1

[14] = target: Fuc(a1-2)Gal(b1-3)[Fuc(a1-4)]GlcNAc
Procedure, shortened: as §1

[15] = target: Fuc(a1-2)Gal(b1-3)[Fuc(a1-4)]GlcNAc(b1-2)Man(a1-3)[Fuc(a1-2)Gal(b1-3)[Fuc(a1-4)]GlcNAc(b1-2)Man(a1-3)]Man(b1-4)GlcNAc(b1-4)GlcNAc
Procedure, shortened: as §1

[16] = target: Fuc(a1-2)Gal(b1-3)[Fuc(a1-4)]GlcNAc(b1-2)Man(a1-3)[Fuc(a1-2)Gal(b1-3)[Fuc(a1-4)]GlcNAc(b1-2)Man(a1-6)]Man(b1-4)GlcNAc(b1-4)[Fuc(a1-6)]GlcNAc(b1-4)[Fuc(a1-6)]GlcNAc
Procedure, shortened: as §1

[17] = target: Fuc(a1-2)Gal(b1-3)[Fuc(a1-4)]GlcNAc(b1-3)[Fuc(a1-3)[Gal(b1-4)]GlcNAc(b1-6)]Gal(b1-4)Glc
Procedure, shortened: as §1

[18] = target: Fuc(a1-2)Gal(b1-3)[Fuc(a1-4)]GlcNAc(b1-3)[Gal(b1-4)GlcNAc(b1-6)]Gal(b1-4)Glc
Procedure, shortened: as §1

[19] = target: Fuc(a1-2)Gal(b1-4)Fuc(a1-3)]GlcNAc(b1-2)Man(a1-3)[Fuc(a1-2)Gal(b1-4)[Fuc(a1-3)]GlcNAc(b1-2)Man(a1-6)]Man(b1-4)GlcNAc(b1-4)GlcNAc
Procedure, shortened: as §1

Fuc(a1-2)Gal(b1-4)Glc = target: Fuc(a1-2)Gal(b1-4)Glc
Procedure, shortened: as §1

Fuc(a1-2)Gal(b1-4)Glc6S = target: Fuc(a1-2)Gal(b1-4)Glc6S
Procedure, shortened: as §1

Fuc(a1-2)Gal(b1-4)GlcNAc = target: Fuc(a1-2)Gal(b1-4)GlcNAc
Procedure, shortened: as §1

[20] = target: Fuc(a1-2)Gal(b1-4)GlcNAc(b1-2)Man
Procedure, shortened: as §1

[21] = target: Fuc(a1-2)Gal(b1-4)GlcNAc(b1-2)Man(a1-3)[Fuc(a1-2)Gal(b1-4)GlcNAc(b1-2)Man(a1-6)]Man(b1-4)GlcNAc(b1-4)GlcNAc
Procedure, shortened: as §1

[22] = target: Fuc(a1-2)Gal(b1-4)GlcNAc(b1-2)Man(a1-3)[Fuc(a1-2)Gal(b1-4)GlcNAc(b1-2)Man(a1-6)]Man(b1-4)GlcNAc(b1-4)[Fuc(a1-6)]GlcNAc
Procedure, shortened: as §1

[23] = target: Fuc(a1-2)Gal(b1-4)GlcNAc(b1-2)[Fuc(a1-2)Gal(b1-4)GlcNAc(b1-4)]Man(a1-3)[Fuc(a1-2)Gal(b1-4)GlcNAc(b1-2)Man(a1-6)]Man(b1-4)GlcNAc(b1-4)GlcNAc
Procedure, shortened: as §1

[24] = target: Fuc(a1-2)Gal(b1-4)GlcNAc(b1-3)Gal(b1-4)GlcNAc
Procedure, shortened: as §1

[25] = target: Fuc(a1-2)Gal(b1-4)GlcNAc(b1-3)Gal(b1-4)GlcNAc(b1-2)Man(a1-3)[Fuc(a1-2)Gal(b1-4)GlcNAc(b1-3)Gal(b1-4)GlcNAc(b1-2)Man(a1-6)]Man(b1-4)GlcNAc(b1-4)GlcNAc
Procedure, shortened: as §1

[26] = target: Fuc(a1-2)Gal(b1-4)GlcNAc(b1-3)Gal(b1-4)GlcNAc(b1-3)Gal(b1-4)GlcNAc
Procedure, shortened: as §1

[27] = target: Fuc(a1-2)Gal(b1-4)GlcNAc(b1-3)GalNAc
Procedure, shortened: as §1

[28] = target: Fuc(a1-2)Gal(b1-4)GlcNAc(b1-3)[Fuc(a1-2)Gal(b1-4)GlcNAc(b1-6)]GalNAc
Procedure, shortened: as §1

[29] = target: Fuc(a1-2)Gal(b1-4)GlcNAc(b1-3)[Fuc(a1-3)[Gal(b1-4)]GlcNAc(b1-6)]Gal(b1-4)Glc
Procedure, shortened: as §1

[30] = target: Fuc(a1-2)Gal(b1-4)GlcNAc(b1-6)GalNAc
Procedure, shortened: as §1

[31] = target: Fuc(a1-2)Gal(b1-4)GlcNAc6S
Procedure, shortened: as §1

[32] = target: Fuc(a1-2)Gal(b1-4)[Fuc(a1-3)]GlcNAc
Procedure, shortened: as §1

[33] = target: Fuc(a1-2)Gal(b1-4)[Fuc(a1-3)]GlcNAc(b1-2)Man(a1-3)[Fuc(a1-2)Gal(b1-4)[Fuc(a1-3)]GlcNAc(b1-2)Man(a1-6)]Man(b1-4)GlcNAc(b1-4)[Fuc(a1-6)]GlcNAc
Procedure, shortened: as §1

[34] = target: Fuc(a1-2)Gal(b1-4)[Fuc(a1-3)]GlcNAc(b1-2)[Fuc(a1-2)Gal(b1-4)[Fuc(a1-3)]GlcNAc(b1-4)]Man(a1-3)[Fuc(a1-2)Gal(b1-4)[Fuc(a1-3)]GlcNAc(b1-2)Man(a1-6)]Man(b1-4)GlcNAc(b1-4)GlcNAc
Procedure, shortened: as §1

[35] = target: Fuc(a1-2)Gal(b1-4)[Fuc(a1-3)]GlcNAc(b1-3)Gal(b1-4)[Fuc(a1-3)]GlcNAc
Procedure, shortened: as §1

[36] = target: Fuc(a1-2)Gal(b1-4)[Fuc(a1-3)]GlcNAc(b1-3)Gal(b1-4)[Fuc(a1-3)]GlcNAc(b1-3)Gal(b1-4)[Fuc(a1-3)]GlcNAc
Procedure, shortened: as §1

[37] = target: Fuc(a1-2)Gal(b1-4)[Fuc(a1-3)]GlcNAc(b1-3)GalNAc
Procedure, shortened: as §1

[38] = target: Fuc(a1-2)Gal(b1-4)[Fuc(a1-3)]GlcNAc(b1-3)[Neu5Ac(a2-6)Gal(b1-4)GlcNAc(b1-6)]Gal(b1-4)Glc
Procedure, shortened: as §1

[39] = target: Fuc(a1-2)Gal3S(b1-4)GlcNAc
Procedure, shortened: as §1

B1: Epa9 (Candida glabrata), CAGL0A01386g (protein)
chain: MGSSHHHHHHSSGLVPRGSHMDITPFAHYPRPEGCSSPPNAVSVGLHMDLYNYPYLYVKNPRTGFTNDTDSDADGETDGDSAGGIEGRAGQCWNPEYQDPNFPRYGYKKYGSFGSSDHVNGKISWDHNEFKEGCKPIMARLPTAYNYPAKITFSNFTMVLSGYFKPKSTGLYKFEIHADDFILFNFGSKNAFECCNREESIDNFGPYVAYAMWPNEADQELEVYLFEDSYYPIRLFYNNRDYHSKFMVGFYPPNTEEITYDFDGYLYMLDDTGNECKDSIRYKTVCDD
- glycan array binding signal (z-score) (Fuc(a1-2)Gal): -0.628
- glycan array binding signal (z-score) (Fuc(a1-2)Gal(b1-3)GalNAc): -0.428
- glycan array binding signal (z-score) [1]: -0.471
- glycan array binding signal (z-score) [2]: -0.078
- glycan array binding signal (z-score) [3]: -0.366
- glycan array binding signal (z-score) [4]: -0.476
- glycan array binding signal (z-score) [5]: -0.361
- glycan array binding signal (z-score) (Fuc(a1-2)Gal(b1-3)GlcNAc): -0.513
- glycan array binding signal (z-score) [6]: -0.396
- glycan array binding signal (z-score) [7]: -0.458
- glycan array binding signal (z-score) [8]: -0.504
- glycan array binding signal (z-score) [9]: -0.468
- glycan array binding signal (z-score) [10]: -0.296
- glycan array binding signal (z-score) [11]: 0.463
- glycan array binding signal (z-score) [12]: -0.246
- glycan array binding signal (z-score) [13]: -0.379
- glycan array binding signal (z-score) [14]: -0.514
- glycan array binding signal (z-score) [15]: -0.316
- glycan array binding signal (z-score) [16]: -0.451
- glycan array binding signal (z-score) [17]: -0.203
- glycan array binding signal (z-score) [18]: 0.159
- glycan array binding signal (z-score) [19]: -0.247
- glycan array binding signal (z-score) (Fuc(a1-2)Gal(b1-4)Glc): -0.404
- glycan array binding signal (z-score) (Fuc(a1-2)Gal(b1-4)Glc6S): -0.355
- glycan array binding signal (z-score) (Fuc(a1-2)Gal(b1-4)GlcNAc): -0.473
- glycan array binding signal (z-score) [20]: -0.466
- glycan array binding signal (z-score) [21]: -0.424
- glycan array binding signal (z-score) [22]: -0.387
- glycan array binding signal (z-score) [23]: -0.479
- glycan array binding signal (z-score) [24]: -0.445
- glycan array binding signal (z-score) [25]: -0.268
- glycan array binding signal (z-score) [26]: -0.869
- glycan array binding signal (z-score) [27]: -0.422
- glycan array binding signal (z-score) [28]: -0.355
- glycan array binding signal (z-score) [29]: -0.303
- glycan array binding signal (z-score) [30]: -0.413
- glycan array binding signal (z-score) [31]: -0.283
- glycan array binding signal (z-score) [32]: -0.589
- glycan array binding signal (z-score) [33]: -0.334
- glycan array binding signal (z-score) [34]: -0.279
- glycan array binding signal (z-score) [35]: -0.521
- glycan array binding signal (z-score) [36]: -0.539
- glycan array binding signal (z-score) [37]: -0.161
- glycan array binding signal (z-score) [38]: -0.247
- glycan array binding signal (z-score) [39]: -0.279
